From PubChem BioAssay AID463173 (ICCB-Longwood Screening Facility, Harvard Medical School, 2010)
Hit rate of the full screen: of about 52,000 compounds, about 1,700 (3.3%) were called active. No stated cut-off is given here; in the data, active means survival mostly below about 52% (no sharp cut-off); inactive means mostly above about 56%. Some of the results follow.

System: Wild type
Assay: growth inhibition of S. aureus wild type versus tarO mutant, primary screen, teichoic acid synthesis inhibitors, RN4220, OD600 (AID 463173)
Conditions: S. aureus RN4220 wild type/DeltatarO growth, OD600, 18 h, stronger effect = lower value, screened at 18.75 µg/mL (by protocol)

SMILES | survival
COc1ccc2oc(=O)c(C(=O)NCCO)cc2c1 | inactive: 105%
O=C(Nc1cccc2cccnc12)c1ccccc1[N+](=O)[O-] | inactive: 72%
Cc1ccc(C2c3c(-c4cc(C)ccc4O)n[nH]c3C(=O)N2Cc2ccco2)cc1 (stereo not given) | active: 1%
Cc1ccc(-n2ncc(C(=O)NCCCN3CCCCC3)c2C2CCN(C(=O)OC(C)(C)C)CC2)c(C)c1 | inactive: 64%
Cc1ccc(NC(=O)CSc2nnc3nc(C)cc(C)n23)cc1 | inactive: 73%
COc1cc(C2C(C#N)=C(N)Oc3n[nH]c(C(F)(F)F)c32)ccc1OCC(N)=O (stereo not given) | inactive: 107%
CC(=O)c1ccc(N2CCN(c3ccc(NC(=O)c4cccs4)cc3C(=O)O)CC2)cc1 | inactive: 74%
CC(C(=O)NCc1ccccc1Cl)n1ccc2cc(S(=O)(=O)N3CCCCC3)ccc21 (stereo not given) | inactive: 87%
CCc1cccc(C)c1NC(=O)CCCn1c(=O)c2cccn2c2cccnc21 | inactive: 95%
O=C(C1c2ccccc2Oc2ccccc21)N1CCCCC1 | inactive: 103%
O=C(O)/C=C/c1cccc(N=NN2CCCCC2)c1 | inactive: 107%
CCOC(=O)c1ccccc1NC(=O)NC(C)c1c(-n2cccc2)sc(C)c1C (stereo not given) | inactive: 71%
Cc1ccc(C)c(NC(=O)CN2C(=O)c3cccc4cccc2c34)c1 | inactive: 72%
CCN(CC)C(=O)c1sc(NC(=O)c2nc3ncccn3n2)c(C(=O)OC)c1C | inactive: 131%
Cn1c(-c2ccc3c(c2)OCO3)cnc1NCc1cc(Cl)ccc1O | inactive: 112%
O=C(CSc1nc(-c2cccc(Cl)c2)nc2cc(=O)[nH]n12)Nc1ccccc1 | inactive: 78%
CCSc1nnc(C2CCCN(C(=O)NCc3ccccc3)C2)n1C (stereo not given) | inactive: 88%
O=c1c2ccccc2n2c(-c3ccccc3O)nnc2n1Cc1ccc(F)cc1 | inactive: 93%
Cc1cccc(Cn2ccn(Cc3ccc(Cl)cc3)c(=O)c2=O)c1 | inactive: 126%
O=C(c1ccccc1Br)N(Cc1ccco1)C1CCS(=O)(=O)C1 (stereo not given) | inactive: 97%
CCCCCC(=O)N1c2ccccc2C(C)(c2ccccc2)CC1(C)C (stereo not given) | active: -2%
CCCCOC(=O)Cc1c(C)[nH]c(=O)[nH]c1=O | inactive: 109%
CCC(Sc1nc2c(sc3ccccc32)c(=O)n1CCc1ccccc1)C(=O)N(CC)CC (stereo not given) | inactive: 53%

SMILES | survival
O=C(N/N=C/c1ccc(-c2ccc(Cl)c(C(=O)O)c2)o1)c1ccncc1 | inactive: 109%
O=C(c1ccc2c(c1)N(Cc1ccccc1)C(=O)c1ccccc1S2(=O)=O)N1CCCC1 | inactive: 86%
COc1cccc(CCNC(=O)Cn2c(-c3cccs3)cc3ccccc32)c1 | inactive: 96%
COc1ccc(NC(=O)CN2C(=O)C(c3ccc(C(C)(C)C)cc3)=NC2(C)C)cc1Cl | inactive: 96%
Cc1ccc(C)c(N2CCN(C(=O)Nc3cn(CC(C)C)c(=O)c4ccccc34)CC2)c1 | inactive: 135%
COc1ccc(Cn2c(C(=O)O)c(CNCC(C)c3ccccc3)c3ccc(OC)cc32)cc1 (stereo not given) | inactive: 83%
COc1ccccc1N1CCN(C(=O)C2CCN(S(=O)(=O)c3c(C)noc3/C=C/c3ccc(C)cc3)CC2)CC1 | inactive: 71%
CCCCn1c(SCC(=O)Nc2cccc(OC)c2)nc2c(sc3ccccc32)c1=O | inactive: 78%
COc1cccc(Cn2c(=O)n(CC3CCC(C(=O)N4CCCCC4)CC3)c(=O)c3sccc32)c1 (stereo not given) | inactive: 65%
Cc1cccc(Cc2cnc(NC(=O)C3Cc4ccc(C)cc4C(=O)O3)s2)c1 (stereo not given) | inactive: 74%
CC(C)NC(=O)CCn1c(SCc2c(F)cccc2Cl)nc2c(sc3ccccc32)c1=O | inactive: 87%
CCOC(=O)N1CCN(Cc2nc3cc(NC(C)=O)ccc3n2C(C)C)CC1 | inactive: 84%
Cc1cc(C)cc(-n2c(SCC(=O)NCc3ccco3)nc3c([nH]c4ccccc43)c2=O)c1 | inactive: 73%
COc1ccc(NC(=O)NCCc2c(C)nn(C)c2C)c(OC)c1 | inactive: 57%
Cc1nnc2c(N3CCN(c4ccccc4F)CC3)nc3ccccc3n12 | inactive: 90%
COc1cccc(NC(=O)CSc2nnc(COc3ccc(Cl)cc3)o2)c1 | inactive: 91%
Cc1ccc2c(c1)c(=O)c1ccccc1n2CCCC(=O)Nc1ccc(C)c(F)c1 | inactive: 85%
Cc1cc(-n2c(SCC(=O)NCc3ccccc3)nc3ccsc3c2=O)ccc1Cl | inactive: 76%
CCOC(=O)c1cc(-c2ccc(C)cc2)n(CCC(=O)Nc2nc3c(C)cccc3s2)c1C | inactive: 96%
CCc1ccccc1NC(=O)N1CCC(NC(=O)C(C)(C)C)CC1 | inactive: 105%
COc1ccc(NC(=O)c2ccco2)cc1NC(=O)C(C)C | inactive: 90%
Cc1ccc(-n2nc3ccc(NC(=O)c4oc5ccc(C)cc5c4C)cc3n2)cc1 | inactive: 68%
CCOc1ccc(OCC(=O)NCCS(=O)(=O)N2CCN(c3ccc(F)cc3)CC2)cc1 | inactive: 67%

SMILES | survival
CCc1cccc(C)c1NS(=O)(=O)c1cc(-c2cc(C)no2)ccc1C | inactive: 89%
COc1ccc(/C=C(\C#N)C(=O)NCc2ccco2)cc1C | inactive: 110%
O=C(CCC1CCCC1)N1CCc2c([nH]c3ccccc23)C1c1ccc(Cl)cc1 (stereo not given) | inactive: 91%
CCN(C(=O)Cn1ncc2c(=O)oc3ccc(C)cc3c21)c1cc(OC)ccc1OC | inactive: 86%
N#Cc1cccc(C(c2nnnn2Cc2ccc(F)cc2)N2CCc3ccccc32)c1 (stereo not given) | inactive: 129%
COc1ccc(NC(=O)N2CCCC2C(=O)Nc2ccccc2)cc1 (stereo not given) | inactive: 102%
O=C(Nc1ccccc1F)c1nc(SCc2ccc(F)cc2)ncc1Cl | inactive: 89%
CCCOc1ccccc1C(=O)N1CCCCC1CCN1CCOCC1 (stereo not given) | inactive: 89%
O=c1[nH]c(NCCO)nc2sc3c(c12)CCCC3 | inactive: 95%
CCOC(=O)C1CCCN(S(=O)(=O)c2ccc(N3CCCCS3(=O)=O)cc2)C1 (stereo not given) | inactive: 66%
CC1CCc2noc(NC(=O)c3ccccc3[N+](=O)[O-])c2C1 (stereo not given) | inactive: 115%
Cc1cc(C(F)F)n2nc(C(=O)Nc3cc(Cl)ccc3C)nc2n1 | inactive: 83%
C/C(=C\C(=O)c1cccnc1)Nc1ccccc1O | inactive: 107%
CN1CCN(C(=O)c2ccc3c(c2)N(Cc2cccc(Cl)c2)C(=O)c2ccccc2S3(=O)=O)CC1 | inactive: 68%
CCCN1C(=O)C(O)(CC(=O)c2ccc(OC)c(OC)c2)c2ccccc21 (stereo not given) | inactive: 130%
O=C(Nc1ccc(C(F)(F)F)cc1)c1cc(S(=O)(=O)NC2CCCCC2)ccc1F | inactive: 81%
COc1ccccc1CNC(=O)C1CCN(S(=O)(=O)c2c(C)noc2/C=C/c2c(C)cc(C)cc2C)CC1 | inactive: 85%
O=C(Nc1ccc2nc(SCCOc3ccccc3)sc2c1)c1cccs1 | inactive: 92%
CCOc1ccccc1NC(=O)c1sc2nc(C)cc(C)c2c1N | inactive: 136%
Cc1coc2c(C)c3oc(=O)c(CC(=O)NCc4ccccc4)c(C)c3cc12 | inactive: 87%
Cc1c(Cl)cccc1NC(=O)CN1C(=O)COc2ccc(S(=O)(=O)N3CCCCCC3)cc21 | inactive: 83%
COc1cccc(CNC(=O)CSc2ncc3c(n2)-c2cc(Cl)ccc2N(C)S3(=O)=O)c1 | inactive: 83%
CCCCOc1ccc(C2(C(=O)O)CCCC2)cc1 | inactive: 105%

SMILES | survival
CCc1ccc(NC(=O)c2ccc(F)c(S(=O)(=O)NC3CCCCCC3)c2)cc1 | active: -4%
O=C(N/N=C/c1ccc(F)cc1)c1ccc(NC(=O)C2CC2)cc1 | inactive: 108%
Cc1ccc(Cl)cc1-n1c(=O)c2sc3ccccc3c2n(CC(=O)NC2CCCCC2)c1=O | inactive: 82%
COc1ccc(CNC(=O)Cn2c(=O)oc3cc(S(=O)(=O)N4CCC(C)CC4)ccc32)cc1 | inactive: 133%
COc1cccc(CNC(=O)CN2C(=O)CSc3c2c(C)nn3-c2ccccc2)c1OC | inactive: 83%
Cc1cccc(C)c1NC(=O)c1nc(S(C)(=O)=O)ncc1N(Cc1ccc(F)cc1)Cc1ccco1 | inactive: 87%
CCOC(=O)c1cnc2c(C)cc(C)cc2c1NCCc1ccc(OC)c(OC)c1 | inactive: 75%
COc1ccc(N(C(=O)c2snc(C(N)=O)c2N)C(C(=O)NCc2ccc(F)cc2)c2ccc(C)o2)c(OC)c1 (stereo not given) | inactive: 118%
Cc1ccc2c(CC(=O)NCc3ccccc3)coc2c1C | inactive: 94%
Cc1cc(-c2ccc(C)c(S(=O)(=O)Nc3ccccc3C(F)(F)F)c2)on1 | inactive: 129%
COc1ccc(C(=O)N(Cc2ccc(N(C)C)cc2)Cc2ccco2)cc1Cl | inactive: 81%
O=c1c2sc3ccccc3c2n(Cc2ccccc2Cl)c(=O)n1Cc1ccccc1 | inactive: 70%
Cc1ccc(C)n1-c1c(C(=O)NCC(C)c2ccccc2)sc2ncccc12 (stereo not given) | inactive: 73%
OC(CNCc1ccccn1)COc1ccc(OCC(O)CNCc2ccccn2)cc1 (stereo not given) | inactive: 101%
O=C(NCCc1csc(-c2ccc(C(F)(F)F)cc2)n1)C(=O)Nc1cc(F)ccc1F | inactive: 81%
COc1ccc(C(=O)Oc2c(Sc3ccc(Cl)cc3)c(C)nn2C(C)(C)C)cc1OC | inactive: 53%
COc1ccc(NC(=O)CCCn2c(=O)c3cccn3c3ccccc32)c(OC)c1 | inactive: 70%
O=C(CCc1ccccc1)NCc1ccco1 | inactive: 98%
CCc1ccccc1NC(=O)Cn1c(=O)n(CCCS(=O)(=O)C2CCCCC2)c(=O)c2ccccc21 | inactive: 117%
O=C(Cn1c(=O)c2ccccc2n(CC(=O)Nc2ccc(Cl)cc2)c1=O)NCCc1ccccc1 | inactive: 84%
CCCCN(C)CCNC(=O)C1CCCN(S(=O)(=O)c2ccc3c(c2)oc(=O)n3C)C1 (stereo not given) | inactive: 83%
